For experiment [1], the target named is T1, hIL10Rb-his (Sino Biological, Catalog#10945) (human, UniProt Q08334 20-220).
T1 construct: Bought; also called Sino Biological cat#10945-H08H; not shown: C-terminal poly-His tag
T1 sequence: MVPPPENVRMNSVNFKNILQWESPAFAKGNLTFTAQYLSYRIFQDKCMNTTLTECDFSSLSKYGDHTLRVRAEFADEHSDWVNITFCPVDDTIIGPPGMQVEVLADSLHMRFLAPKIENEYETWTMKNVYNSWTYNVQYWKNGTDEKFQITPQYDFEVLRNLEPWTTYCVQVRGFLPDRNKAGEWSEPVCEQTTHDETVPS
In words: SPR Biacore T200; hIL10Rb-his captured on anti-histidine chip, humanized mono-Fc VHH analyte, single cycle kinetics; 1:1 Langmuir fit. On the procedure: (§1) All experiments were conducted in 10 mM Hepes, 150 mM NaCl, 0.05% (v/v) Polysorbate 20 (PS20) and 3 mM EDTA (HBS-EP+ buffer) on a Biacore T200 instrument equipped with an anti-histidine capture chip (Cytiva). ˜0.5 μg/mL hIL10Rb-his (Sino Biological cat #10945) was flowed at 5 μl/min for 120 seconds, reaching the capture loads listed in the table below. Following ligand capture, injections of a 2-fold dilution series (50, 25, 12.5, 6.25, 3.13 nM) of humanized, mono-Fc VHHs (see analyte in table) was performed in single cycle kinetics mode. Surface regeneration was achieved by flowing 10 mM glycine-HCl, pH 1.5 (60 seconds, 50 μL/min). Buffer-subtracted sensograms were processed with Biacore T200 Evaluation Software and globally fit with a 1:1 Langmuir binding model (bulk shift set to zero) to extract kinetics and affinity constants (kₐ, kd, KD). RMAX<100 RU indicates surface density compatible with kinetics analysis. Calculated Rmax were generated using the equation Rmax=Load (RU)×valency of ligand×(Molecular weight of analyte/Molecular weight of ligand. Surface activity was defined as the ratio experimental/calculated Rmax. See tables below for sample information and experimental results.

The target in experiment [2] is T1, hIL10Rb-his (Sino Biological, …). In words: SPR; ratio of experimental to calculated Rmax. The protocol:
as §1

A word on the Kd: it is a measure of binding affinity in units of concentration. A high value points to a looser complex. As a reminder, the koff is the rate constant with which the complex falls apart. A word on the kon: it is the rate constant with which the complex forms. Higher therefore signals faster complex formation.

B1: DR1227 (humanized DR246 IL10Rb VHH), mono-Fc (Fc fusion)
chain: EVQLLESGGGLVQPGGSLRLSCAASGYTHSSYCMGWVRQAPGKGLEWVSAIDVDGSTTYADSVKGRFTISRDNSKNTLYLQMNSLRAEDTAVYYCAAEFADCSSNYFLPPGAVRYWGQGTLVTVSSASRV[letters of human IgG4 Fc with S228P N297G (EU numbers) not shown]
For B1, in experiment [1], the Kd is 12.3 nM, the koff was 0.0056 s⁻¹ and the kon worked out at 460000 M⁻¹ s⁻¹. Further, in experiment [2], the “Surface Activity” value was 14%.

B2: DR1228 (humanized DR246 IL10Rb VHH), mono-Fc (Fc fusion)
chain: EVQLLESGGGLVQPGGSLRLSCAASGYTHSSYCMGWVRQAPGKGLEGVSAIDVDGSTTYADSVKGRFTISRDNSKNTLYLQMNSLRAEDTAVYYCAAEFADCSSNYFLPPGAVRYWGQGTLVTVSSASRV[letters of human IgG4 Fc with S228P N297G (EU numbers) not shown]
B2: in experiment [1], the Kd was 7 nM, the koff was determined as 0.00092 s⁻¹ and the kon came out at 130000 M⁻¹ s⁻¹.

B3: DR1229 (humanized DR246 IL10Rb VHH), mono-Fc (Fc fusion)
chain: EVQLVESGGGLVQPGGSLRLSCAASGYTHSSYCMGWVRQAPGKGLEWVSAIDVDGSTTYADSVKGRFTISRDNSKNTLYLQMNSLRAEDTAVYYCAAEFADCSSNYFLPPGAVRYWGQGTLVTVSSASRV[letters of human IgG4 Fc with S228P N297G (EU numbers) not shown]
For the molecule B3, in experiment [1], the Kd came out at 13.8 nM, the koff was 0.0096 s⁻¹ and the kon was 700000 M⁻¹ s⁻¹. Also, the “Surface Activity” value in experiment [2] was 14%.

B4: DR1230 (humanized DR246 IL10Rb VHH), mono-Fc (Fc fusion)
chain: EVQLVESGGGLVQPGGSLRLSCAASGYTHSSYCMGWVRQAPGKGLEGVSAIDVDGSTTYADSVKGRFTISRDNSKNTLYLQMNSLRAEDTAVYYCAAEFADCSSNYFLPPGAVRYWGQGTLVTVSSASRV[letters of human IgG4 Fc with S228P N297G (EU numbers) not shown]
In experiment [1], B4 had a Kd of 7.1 nM, a koff of 0.00098 s⁻¹ and a kon of 140000 M⁻¹ s⁻¹.

The values above are taken from patent US20250163167A1 (SYNTHEKINE, published 2025).
